Measurements as given in PubChem BioAssay AID504332 (National Center for Advancing Translational Sciences (NCATS), 2011).
“And” between values parts separate entries of the source, which are not always exact repeats. Identical values can stand only once. Out of some 350,000 compounds screened, about 31,000 (8.9%) were called active. Inconclusive results, whose numbers are uncertain, are shown with a selection of clear calls. Calls come from the whole dose curve; as a rule, active = well fitted inhibition curve with a large enough effect; inconclusive = small, poorly fitted or top-dose-only effect; inactive = no such curve, though single readings can be large or run the other way. A potency beside an inconclusive call is a rough fit, not a confirmed value.

Target: Histone-lysine N-methyltransferase EHMT2 (Homo sapiens) (UniProt Q96KQ7)
Sequence of UniProt Q96KQ7 (Q96KQ7 whole entry, looked up): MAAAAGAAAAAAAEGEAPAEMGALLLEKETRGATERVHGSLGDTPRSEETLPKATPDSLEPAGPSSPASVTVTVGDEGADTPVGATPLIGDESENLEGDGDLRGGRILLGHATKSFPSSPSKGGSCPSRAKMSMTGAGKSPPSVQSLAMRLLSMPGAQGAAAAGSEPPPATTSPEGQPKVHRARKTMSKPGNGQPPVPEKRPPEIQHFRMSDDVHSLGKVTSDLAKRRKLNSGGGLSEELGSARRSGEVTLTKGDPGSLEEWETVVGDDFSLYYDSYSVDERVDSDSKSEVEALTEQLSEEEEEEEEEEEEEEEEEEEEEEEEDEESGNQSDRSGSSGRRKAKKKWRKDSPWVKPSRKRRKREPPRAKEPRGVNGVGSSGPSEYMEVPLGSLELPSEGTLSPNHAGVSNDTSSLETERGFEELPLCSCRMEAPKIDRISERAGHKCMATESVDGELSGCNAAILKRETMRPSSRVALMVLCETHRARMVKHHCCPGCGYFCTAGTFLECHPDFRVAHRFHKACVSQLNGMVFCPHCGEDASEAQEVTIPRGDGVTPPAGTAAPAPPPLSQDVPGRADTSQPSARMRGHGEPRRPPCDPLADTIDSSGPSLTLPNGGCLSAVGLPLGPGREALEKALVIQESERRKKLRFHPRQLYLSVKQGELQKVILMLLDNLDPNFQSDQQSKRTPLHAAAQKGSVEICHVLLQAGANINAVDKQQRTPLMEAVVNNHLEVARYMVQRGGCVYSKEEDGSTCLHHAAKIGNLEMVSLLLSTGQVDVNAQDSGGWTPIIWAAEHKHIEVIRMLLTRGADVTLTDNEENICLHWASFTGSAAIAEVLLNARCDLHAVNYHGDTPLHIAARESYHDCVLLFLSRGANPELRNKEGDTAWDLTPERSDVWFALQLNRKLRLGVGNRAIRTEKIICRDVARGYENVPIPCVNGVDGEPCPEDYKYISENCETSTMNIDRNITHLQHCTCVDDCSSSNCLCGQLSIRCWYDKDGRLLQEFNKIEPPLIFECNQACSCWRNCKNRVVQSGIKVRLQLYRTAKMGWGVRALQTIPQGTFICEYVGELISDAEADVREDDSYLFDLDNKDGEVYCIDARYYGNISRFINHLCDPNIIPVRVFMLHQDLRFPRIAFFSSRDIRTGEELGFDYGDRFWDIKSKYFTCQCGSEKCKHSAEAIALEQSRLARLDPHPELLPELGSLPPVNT
Experiment: qHTS Assay for Inhibitors of Histone Lysine Methyltransferase G9a; note: nearly all actives have a fitted effect of over 75% in size
Details: G9a H3K9 monomethylation, AlphaScreen, 2 h; activity, negative = inhibition: at 59 µM (top of the series) unless noted
Procedure, shortened: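 Step 1: enzyme (final 20 nM) with compound, 15 min RT. Step 2: substrate peptide 500 nM and SAM 20 uM, 2 h RT. Step 3: anti-H3K9me1 antibody and AlphaScreen beads, 10 min, then plate read.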
% is set by controls: 0 for no effect and ±100 for the full control effect; potency is the fitted concentration of half-maximal effect; tags give direction and shape of the fitted curve.

| SMILES | activity, negative = inhibition | Potency |
| --- | --- | --- |
| O=C(CC1OC(=O)c2ccccc21)NNC(=O)c1ccc(F)cc1 (configuration not stated) | inactive: 3.74% [at 12.7 µM] |  |
| CS(=O)(=O)c1ccc2nc(NC(=O)CCNC(=O)c3ccc([N+](=O)[O-])cc3)sc2c1 |  | active: 39.8 µM |
| OCCSc1nnc(Nc2ccccc2)s1 | inconclusive: -56.9% [inhibitor] [at 102 µM] |  |
| CCc1cc(C(=O)NNC(=S)Nc2cc(C)ccc2C)cs1 |  | inconclusive: 25.1 µM [inhibitor, single point] |
| Cc1ccc(Nc2nc(N)nc(CN3CCCCCC3)n2)cc1 | inconclusive: -113% [inhibitor] |  |
| CCOC(=O)c1c(C)[nH]c(C)c1C(=O)COC(=O)CNC(=O)c1ccc(OCC)cc1 | inactive: -20.6% [at 12.7 µM] |  |
| COC(=O)/C=C/c1cnc[nH]1 |  | inconclusive: 79.4 µM [inhibitor, single point] |
| CC(Sc1ccsc1[N+](=O)[O-])C(=O)NCCc1ccc(Cl)cc1 (configuration not stated) | inactive: 6.07% |  |
| O=C(NCCCCc1ccccc1)C12CN(Cc3ccccc3)CC1C(c1ccc([N+](=O)[O-])cc1)=NO2 (configuration not stated) | inconclusive: -74.2% [inhibitor] |  |
| COc1ccc(OC)c(NC(=S)NCCCN2CCOCC2)c1 |  | inconclusive: 22.4 µM [inhibitor, partial curve, poor fit] |
| CCn1c(=O)cc(OCC(=O)N2CCN(c3ccc(C(C)=O)cc3)CC2)c2ccccc21 | inactive: -7.5% |  |
| COc1cccc2sc(NC(=O)c3ccc(S(=O)(=O)N4CCOCC4)cc3)nc12 | inconclusive: -66.8% [inhibitor] |  |
| COc1ccc(N2CCN(C(=O)CN3CCSc4ccccc43)CC2)cc1 |  | inconclusive: 22.4 µM [inhibitor, single point] |
| Cc1cc(C)n(-c2ccc(NC(=O)C3CCCCN3C(=O)c3sccc3C)cc2)n1 (configuration not stated) | inactive: 15.8% [at 102 µM] |  |
| CC(=O)Nc1ccc(NC(=O)CN2C(=O)CC(c3ccco3)Sc3ccccc32)cc1 (configuration not stated) | inactive: -7.15% |  |
| Cc1ccc(CSCCC(=O)N2CCN(c3ccc(F)cc3)CC2)cc1 |  | inconclusive: 25.1 µM [inhibitor, partial curve, poor fit] |
| COc1ccc(N2CC(O)=C(c3n(C)c4ccccc4[n+]3C)C2=N)cc1 | inactive: -46.8% [at 102 µM] |  |
| CSc1nsc(SC)c1NC(=O)OCCc1ccccn1 | inconclusive: -76.3% [inhibitor] |  |
| O=C1c2ccccc2-c2ncnc3c(N4CCOCC4)cc(N4CCOCC4)c1c23 |  | active: 50.1 µM |
| O=C(C1=C[C@@H](c2csc3ccccc23)C[C@@H](OCCCCO)O1)N1CCN(Cc2ccc3c(c2)OCO3)CC1 | inconclusive: -70.6% [inhibitor] |  |
| C=CCc1ccccc1Oc1cc(OC)nc(N)n1 | inactive: -4.67% [at 0.501 µM] |  |
| COc1ccc(NC(=O)COc2nsnc2N2CCCCC2)cc1 |  | inconclusive: 28.2 µM [inhibitor, single point] |
| O=C(CSc1ccc2nnc(-c3cccnc3)n2n1)NCc1ccc2c(c1)OCO2 |  | inconclusive: 39.8 µM [inhibitor, single point] |
| O=C(Cc1csc(NC(=O)Nc2cccc(Cl)c2)n1)NC1CCCC1 |  | inconclusive: 89.1 µM [inhibitor, single point] |

| SMILES | activity, negative = inhibition | Potency |
| --- | --- | --- |
| Cc1cccc(C)c1Nc1c(-c2ccc(N3CCOCC3)cc2)nc2ncccn12 |  | active: 44.7 µM and active: 8.91 µM |
| S=c1[nH]nc(Cc2noc3ccccc23)n1-c1ccc(Cl)cc1 |  | active: 1.41 µM |
| Cc1nn(-c2ccccc2)c2c1C1(C(=O)Nc3ccccc31)N1C(=N2)Sc2ccccc21 (configuration not stated) |  | inconclusive: 44.7 µM [inhibitor, partial curve] |
| CSc1nnc(-c2cccn(Cc3ccccc3)c2=O)o1 | inactive: -34.2% [at 102 µM] |  |
| O=C(NNc1ccc([N+](=O)[O-])cc1)c1ccco1 |  | active: 44.7 µM |
| C=CCSc1nnc2c(n1)OC(c1ccco1)Nc1ccccc1-2 (configuration not stated) |  | inconclusive: 25.1 µM [inhibitor, single point] |
| CSc1ccccc1OCc1cc(C(=O)N2CCCC(C)C2)no1 (configuration not stated) |  | inconclusive: 100 µM [inhibitor, single point] |
| Cc1c(Cl)cccc1N1CCn2c1nc1c2c(=O)n(CC(=O)O)c(=O)n1C | inactive: 9.35% |  |
| CN(C)CCCN(C(=O)c1ccc(C(=O)c2ccccc2)cc1)c1nc2cc3c(cc2s1)OCO3 |  | inconclusive: 44.7 µM [inhibitor, partial curve, poor fit] |
| CN(C)S(=O)(=O)c1ccc(C(=O)NCCSc2c(-c3ccc(Br)cc3)[nH]c3ccccc23)cc1 | inactive: 1.17% |  |
| CCOc1ccc(NC(=O)Nc2ccc(Cc3ccncc3)cc2)cc1 | inactive: 9.11% [at 102 µM] |  |
| CCOC(=O)c1ccc(S(=O)(=O)N2CCC(N3CCCCC3)CC2)cc1 | inactive: 21.8% [at 102 µM] |  |
| O=C1Nc2ccccc2C1Cc1ccccn1 (configuration not stated) |  | inconclusive: 35.5 µM [inhibitor, single point] |
| Cc1occc1C(=O)N/N=C/c1ccccc1[N+](=O)[O-] |  | inconclusive: 39.8 µM [inhibitor, single point] |
| O=C(NCC(c1cccnc1)N1CCc2ccccc2C1)C(=O)Nc1ccccc1F (configuration not stated) |  | inconclusive: 3.55 µM [inhibitor, full curve] |
| CCN(CC(=O)NC(C)C)C(=O)[C@H](C)NC(=O)c1ccc(Br)cc1 | inactive: 5.32% [at 102 µM] |  |
| CNC(=S)N/N=C/c1ccc(N2CCOCC2)s1 |  | active: 28.2 µM |
| COc1cc(OC)cc(C(=O)Nc2ccc3nc4c(c(Nc5ccc(OC)c(OC)c5)c3c2)CCCC4)c1 |  | active: 17.8 µM |
| O=C(CSc1nnc(Nc2ccccc2)s1)NC1CC1 |  | inconclusive: 11.2 µM [inhibitor, partial curve, poor fit] |
| CN(C(=O)c1ccc2nc(N)sc2c1)c1ccccc1 |  | inconclusive: 56.2 µM [inhibitor, single point] |
| Cc1ccc(S(=O)(=O)N2CCCCC2)cc1C(=O)NCc1ccncc1 |  | inconclusive: 79.4 µM [inhibitor, single point] |
| COc1ccc(/C(O)=C2/C(=O)C(=O)N(CCN(C)C)C2c2ccc(C)cc2)cc1Cl (configuration not stated) |  | active: 89.1 µM |
| CN(C)CCOc1ccc2c(c1)Sc1ccccc1CC2=O |  | inconclusive: 31.6 µM [inhibitor, single point] |
